A number of entries come with more than one value. The list is limited to them. There may be further records. Some protein pairs were linked at several places, one record each.
Assays:
Test in all cases: cross-linking mass spectrometry
Conditions in all cases: BS3, not determined
CDC73 = CDC73 (UniProt Q6P1J9)
CTR9 = CTR9 (UniProt Q6PD62)
LEO1 = LEO1 (UniProt Q8WVC0)
PAF1 = PAF1 (UniProt Q8N7H5)
POLR2E = POLR2E (UniProt P19388)
SKIC8 = SKIC8 (UniProt Q9GZS3)
SUPT6H = SUPT6H (UniProt Q7KZ85)
RECQL5 = RECQL5 (UniProt O94762)

| Substance | cross-linked residues (CDC73) | cross-linked residues (CTR9) | cross-linked residues (LEO1) | cross-linked residues (PAF1) | cross-linked residues (POLR2E) | cross-linked residues (SKIC8) | cross-linked residues (SUPT6H) | cross-linked residues (RECQL5) |
| --- | --- | --- | --- | --- | --- | --- | --- | --- |
| RECQL5, O94762 | K46 - K283 and K103 - K161 and K110 - K47 and K110 - K283 and K294 - K283 and K733 - K47 and K733 - K209 and K733 - K283 and K743 - K161 and K848 - K198 and K848 - K283 and K960 - K47 and K960 - K136 and K960 - K198 and K960 - K209 and K960 - K283 | K46 - K1011 and K103 - K913 and K103 - K933 and K103 - K939 and K103 - S941 and K103 - K980 and K103 - K1011 and K103 - K1025 and K103 - K1051 and K103 - S1055 and K110 - K849 and K110 - K933 and K110 - K939 and K110 - S941 and K110 - K980 and K110 - K1011 and K110 - K1025 and K110 - K1027 and K110 - K1051 and K211 - K933 and K211 - S941 and K211 - K1011 and K211 - S1054 and K243 - K939 and K294 - K913 and K294 - K933 and K294 - S941 and K429 - S943 and K476 - K884 and K476 - K886 and K476 - K913 and K476 - K939 and K661 - K868 and K733 - K444 and K733 - K637 and K733 - K833 and K743 - K471 and K743 - K637 and K743 - K833 and K743 - K844 and K848 - K637 and K960 - K369 and K960 - K393 and K960 - K833 | K103 - K559 and K103 - K591 and K103 - K618 and K103 - K639 and K110 - K289 and K110 - K618 and K389 - K591 and T438 - S110 | K22 - K359 and K46 - A2 and K46 - K305 and K103 - A2 and K103 - K133 and K110 - A2 and K110 - S233 and K110 - K338 and K110 - K359 and K294 - A2 and K429 - A2 and K476 - A2 and K548 - A2 and K598 - A2 and K613 - A2 and K613 - K133 and K733 - A2 and K743 - A2 and K743 - K68 and T755 - A2 and K848 - A2 and K960 - A2 and K960 - K133 and K960 - K305 | K294 - K115 and K476 - K85 | K743 - K140 and K749 - K29 and K848 - K140 and K960 - K139 and K960 - K140 | K46 - K1005 and K103 - K111 and K110 - K29 | – |
| SUPT5H, O00267 | – | – | – | – | – | – | – | S2 - K46 and S2 - K103 and S2 - K110 and S2 - K211 and S2 - K294 and K143 - K211 and K143 - K429 and K175 - K476 and K231 - K455 and K231 - K476 and K258 - K476 |

Reference: article PMC12440807
